Measured values published in PubChem BioAssay AID1347120 (National Center for Advancing Translational Sciences (NCATS), 2019).
In all, about 390,000 compounds went through this assay and about 930 (0.24%) were called active. The inconclusive results got no clear call from the source; some entries with a clear call stand among them for comparison. The call rests on the fitted dose curve; in most records, active means well fitted activation curve with a large enough effect; inconclusive means small, poorly fitted or top-dose-only effect; inactive means no such curve, though single readings can be large or run the other way. Potencies of inconclusive entries are doubtful fits and often do not repeat.
Potency means the concentration at half of the fitted maximal effect; tags describe the fitted curve by direction and shape.

Experiment: qHTS for Suppressors of FUS Proteinopathy: Primary screen using FUS-linked yeast assay; further: nearly all actives have a fitted effect of over 55% in size;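 on growth rescue (activation): plate controls were DMSO vehicle for no effect and reference control for full effect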
Conditions: S. cerevisiae FUS-expressing, OD600, 24 h; Potency: growth rescue; growth rescue (activation): at 76.6 µM (top of the series)
Summary of the method: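 Steps: raffinose overnight preculture; dilution to OD 0.005 in 2% galactose minimal medium; compound addition (concentration series); 24hr at 30C, 99% humidity; absorbance read at 600 nm.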
For O=C(N/N=C/c1cccnc1)c1ccccc1OCc1ccc(Br)cc1, the “growth rescue (activation)” value was inactive: 30.3%. With CSc1nnc(NC(=O)c2nc(S(=O)(=O)Cc3ccc(C)cc3)ncc2Cl)s1 the Potency was inconclusive: 50.1 µM [activator, single point]. In the case of CC1=C(C(=O)N(C(C)C)C(C)C)CC(CC(=O)NC(c2ccccc2)c2ccccc2)C(=O)N1Cc1ccc(C(C)(C)C)cc1 (stereo unspecified), the Potency is reported as inconclusive: 8.91 µM [activator, full curve]. For S=C(NCc1ccc(Cl)cc1)Nc1ccccc1Cl, the “growth rescue (activation)” value was inactive: -12%. For CCc1nc(SCc2cc(=O)c3cc(F)ccc3[nH]2)n[nH]1, the “growth rescue (activation)” value was inactive: -10.8%. With CCCC1(C(=O)OCC)NC(c2ccc(N(C)C)cc2)C2C(=O)N(c3ccc(F)cc3)C(=O)C21 (stereo unspecified) the Potency was inconclusive: 31.6 µM [activator, single point]. For Nc1c(Cl)cc(C2=NCCn3c2c2ccc([N+](=O)[O-])cc2[n+]3[O-])cc1Cl, the Potency was inconclusive: 50.1 µM [activator, single point]. With NC(=O)Cn1c(=O)n(-c2ccc(F)c(Cl)c2)c(=O)c2sc3ccccc3c21 the Potency was inconclusive: 50.1 µM [activator, single point]. In the case of Cc1c(Cc2ccccc2)c(=O)oc2c(C)c(OCC(=O)N3CCC(C(=O)O)CC3)ccc12, the Potency is reported as inconclusive: 17.8 µM [activator, partial curve]. For Cc1c(C(=O)NN2CCCCC2)nn(-c2ccc(Cl)cc2Cl)c1-c1ccc(Cl)cc1, the Potency was inconclusive: 20 µM [activator, partial curve, poor fit]. For Cc1ccccc1OCC(=O)N(Cc1nnc(-c2ccc(Cl)cc2)o1)C(C)C, the Potency was inconclusive: 25.1 µM [activator, partial curve]. For CCN(CC)S(=O)(=O)c1ccc(NC(=O)[C@H](CCSC)N2Cc3ccccc3C2=O)cc1, the “growth rescue (activation)” value was inactive: 40.6%. With CCN1CCN(C(c2cccnc2)c2cc(Cl)c3cccnc3c2O)CC1 (stereo unspecified) the Potency was inconclusive: 15.8 µM [activator, partial curve, poor fit]. In the case of O=C(Nc1ccccc1)c1nc[nH]c1C(=O)NCCN(CCNC(=O)c1[nH]cnc1C(=O)Nc1ccccc1)CCNC(=O)c1[nH]cnc1C(=O)Nc1ccccc1, the Potency is reported as inconclusive: 15.8 µM [activator, partial curve, poor fit]. In the case of CCOc1ccc(/C=C2\SC(=S)NC2=O)cc1OC, the “growth rescue (activation)” value is reported as inactive: 21.5%. For CCn1c(/C(C#N)=N/O)nc2ccccc21, the “growth rescue (activation)” value was inactive: -35.5%. With COC(=O)[C@]12C[C@H](CC(=O)NCc3cccc(C(F)(F)F)c3)C(=O)N(Cc3ccc(Cl)cc3Cl)C1=C[C@H](C(C)(C)C)O[C@@H]2C the Potency was active: 12.6 µM. For CC1(C)CC(=O)C=C(NCc2ccccc2)C1, the Potency was inconclusive: 5.01 µM [activator, full curve, poor fit]. In the case of COc1cc(CN(C)c2ncnc3sccc23)ccc1OC(F)F, the “growth rescue (activation)” value is reported as inactive: -7.75%. With CN(C(=O)c1cccc(NC(=O)Cc2ccc(NC(=O)C3CCCN(C(=O)CCc4ccccc4)C3)cc2)c1)C1CCCCC1 (stereo unspecified) the Potency was inconclusive: 25.1 µM [activator, single point]. With O=C(Nc1ccc(N2CCCCC2)c(Cl)c1)c1ccc(N2CCOCC2)c([N+](=O)[O-])c1 the Potency was inconclusive: 14.1 µM [activator, partial curve, poor fit]. For CCOC(=O)c1cc(=O)c2ccc(OCC(=O)Nc3ccccc3)cc2o1, the “growth rescue (activation)” value was inactive: 12.9%. For NS(=O)(=O)c1cccc(NC(=O)COC(=O)c2cc(-c3ccc(Cl)cc3)nc3ccccc23)c1, the Potency was inconclusive: 22.4 µM [activator, partial curve]. In the case of COc1ccccc1NC(=O)Nc1nc(CC(=O)NCc2c(F)cccc2F)cs1, the “growth rescue (activation)” value is reported as inactive: 12.2%. For CC(C)NC(=S)N/N=C/c1cc(Br)ccc1O, the “growth rescue (activation)” value was inactive: 0.79%. With O=C1CC(N2CCN(c3nc4ccccc4s3)CC2)C(=O)N1c1ccc(F)cc1 (stereo unspecified) the Potency was inconclusive: 35.5 µM [activator, single point]. For O=C(c1ccc(Cl)cc1)N1CCC(O)(CSc2ccc(Cl)cc2Cl)CC1, the Potency was inconclusive: 39.8 µM [activator, single point]. For CCN(CC)CCCNC(=O)/C(=C\c1cccn1C)NC(=O)c1cccs1, the Potency was inconclusive: 25.1 µM [activator, single point]. For CCOC(=O)C1CCCN(C(=O)CN2C(=O)/C(=C/c3ccc(OC)cc3)Oc3ccccc32)C1 (stereo unspecified), the Potency was inconclusive: 11.2 µM [activator, partial curve, poor fit]. With COc1ccc2cc(CN(Cc3ccco3)Cc3nnnn3C3CCCCC3)c(=O)[nH]c2c1 the Potency was inconclusive: 31.6 µM [activator, partial curve, poor fit]. For COC(=O)c1c(N)[nH]c(C(=O)c2ccccc2)c1-c1ccccc1Br, the “growth rescue (activation)” value was inactive: -9.2%. With COc1cccc(-n2c(Cc3cc(=O)[nH]c(=O)[nH]3)nnc2SCC(=O)N2CCCCC2)c1 the “growth rescue (activation)” value was inactive: -14.2%. With Cc1cccc(OCC(=O)Nc2cc(Cl)ccc2-n2cncn2)c1C the “growth rescue (activation)” value was inactive: 5.95%. For O=C(Nc1ccccc1C(=O)NCc1ccccc1)c1ccccc1Br, the “growth rescue (activation)” value was inactive: 7.36%. In the case of CCc1nc2c(OCC3COc4ccccc4O3)cccn2c1N(C)C(=O)c1ccccc1F (stereo unspecified), the Potency is reported as inconclusive: 28.2 µM [activator, single point]. With CCOC(=O)N1CCN(c2cc(NCCC(=O)O)c3c4c(onc24)-c2ccccc2C3=O)CC1 the Potency was inconclusive: 39.8 µM [activator, partial curve, poor fit]. In the case of Cc1ccc([N+](=O)[O-])cc1S(=O)(=O)N1CCC(C)CC1, the “growth rescue (activation)” value is reported as inactive: -0.468%. In the case of Cc1ccc(NC(=O)C(=Cc2ccc(C(=O)O)cc2)C(=O)Nc2ccc(C)cc2C)c(C)c1, the “growth rescue (activation)” value is reported as inactive: 1.66%. In the case of CN(C)CCNC(=O)c1ccc2c(c1)NC(=O)C(CS(=O)(=O)Cc1cccc(Br)c1)N2 (stereo unspecified), the Potency is reported as inconclusive: 39.8 µM [activator, single point]. For Cc1ccc(S(=O)(=O)N2CCCc3cc(NS(=O)(=O)c4cccc(Cl)c4)ccc32)cc1, the Potency was inconclusive: 35.5 µM [activator, single point]. For O=C(NC12CC3CC(CC(C3)C1)C2)c1ccc(Br)o1, the “growth rescue (activation)” value was inactive: 2.39%. With O=C(CSc1nc2ccccc2c(=O)n1-c1ccccc1)Nc1ccc2c(c1)CCC2 the Potency was inconclusive: 35.5 µM [activator, single point]. In the case of COc1cc(CNc2ccc(N3CCCCC3)cc2)ccc1OCC(=O)NC(C)(C)C, the Potency is reported as inconclusive: 14.1 µM [activator, partial curve, poor fit]. With Oc1c(Br)cc(Br)cc1C=NCc1ccccc1 the “growth rescue (activation)” value was inactive: 20.5%. In the case of COc1ccc(-n2c(-c3ccc(Br)cc3)c[n+]3c2CCC3)cc1, the “growth rescue (activation)” value is reported as inactive: -3.68%. In the case of C=CCn1c(SCC(=O)Nc2ccccc2OCC)nnc1-c1ccc(C(C)(C)C)cc1, the Potency is reported as inconclusive: 15.8 µM [activator, partial curve, poor fit]. With COc1ccc(NC(=O)N(C)C[C@H]2OCCCC[C@@H](C)Oc3ccc(NC(=O)c4ccccc4)cc3C(=O)N([C@H](C)CO)C[C@@H]2C)cc1 the Potency was inconclusive: 14.1 µM [activator, partial curve, poor fit]. In the case of CCOC(=O)[C@]12CCCC=C1N(Cc1ccc(OC)cc1)C(=O)[C@@H]2CC(=O)NCc1ccccc1, the Potency is reported as inconclusive: 15.8 µM [activator, partial curve]. For COc1cccc(-c2cnc3c(NC=O)cc(-c4ccccc4Oc4ccccc4)cn23)c1, the Potency was inconclusive: 31.6 µM [activator, single point]. For Cc1cccc(C)c1NC(=O)C(c1ccccc1)n1c(=O)c(-c2ccco2)nc2ccccc21 (stereo unspecified), the Potency was inconclusive: 8.91 µM [activator, partial curve]. With O=C(O)c1cc(-c2ccco2)nn1-c1cccc(Cl)c1 the “growth rescue (activation)” value was inactive: 6.49%. For COc1cc(OC)cc(C2=Cc3ccc(OC)cc3C(CC(C)=O)N2c2ccc(C#CC3(O)CCCCC3)cc2)c1 (stereo unspecified), the Potency was inconclusive: 31.6 µM [activator, partial curve, poor fit]. With CCCn1c(SCc2nc(-c3ccccc3OCC)no2)nnc1-c1ccc(Cl)cc1 the Potency was inconclusive: 25.1 µM [activator, single point]. For CCCN(Cc1nnc(-c2ccccc2Cl)o1)C(=O)c1cc2ccccc2o1, the Potency was inconclusive: 31.6 µM [activator, partial curve, poor fit]. With CCC(C(=O)NC1CCCC1)N(Cc1cccs1)C(=O)Cn1nnc(-c2ccc(OC)c(OC)c2)n1 (stereo unspecified) the “growth rescue (activation)” value was inactive: 8.35%. For CCOc1ccccc1C(=O)N(Cc1cc(OC)c(OC)c(OC)c1)c1ccccn1, the “growth rescue (activation)” value was inactive: 8.61%. For CN(C)c1ncc(C(=O)O)cn1, the Potency was inconclusive: 0.282 µM [activator, full curve, poor fit]. In the case of O=C(O)/C=C/C(=O)Nc1ccccc1-c1ccccc1NC(=O)/C=C/C(=O)O, the “growth rescue (activation)” value is reported as inactive: 36.3%. In the case of CCN(CC)CCCN1C=C2C(=O)C(C)(OC(=O)CCC(=O)OC)C(=O)C(Br)=C2C=C1c1ccc(OC)cc1 (stereo unspecified), the Potency is reported as inconclusive: 28.2 µM [activator, partial curve, poor fit]. For O=c1[nH]c(C2CCCN(S(=O)(=O)c3ccccc3Cl)C2)nc2c1nnn2Cc1ccc2c(c1)OCCO2 (stereo unspecified), the Potency was active: 14.1 µM. With O=C1CCCN1c1ncc(S(=O)(=O)c2ccc([N+](=O)[O-])cc2)s1 the “growth rescue (activation)” value was inactive: 13.8%. In the case of CS(=O)(=O)c1ccccc1C(=O)N(CCC1=CCCCC1)c1c(N)n(Cc2ccccc2)c(=O)[nH]c1=O, the Potency is reported as inconclusive: 44.7 µM [activator, single point]. In the case of Cc1cccc(OCCCC(=O)O)c1, the “growth rescue (activation)” value is reported as inactive: -43.9%. For CCC[C@H]1[C@@H](NC(=O)c2ccc(C)cc2)CC[C@@]23CCCN2C(=O)CCC[C@@H]13, the “growth rescue (activation)” value was inactive: 0.459%. With Clc1cccc(Nc2nc(-c3ccncc3)cs2)c1 the “growth rescue (activation)” value was inactive: 19.7%. With O=C(CC1CCCCC1)N1CCC(c2nc(-c3ccc(S(=O)(=O)N4CCCC4)cc3)no2)CC1 the Potency was inconclusive: 10 µM [activator, partial curve, poor fit].
